# Residue numbers refer to the chain shown, from its start. This is one part of the list.
# T1: RBFOX1 RRM RbFoxmut (Fox-RRM*) (Homo sapiens, UniProt Q9NWB1 109-208, R118D;E147R;N151S;E152T)
# T1 sequence: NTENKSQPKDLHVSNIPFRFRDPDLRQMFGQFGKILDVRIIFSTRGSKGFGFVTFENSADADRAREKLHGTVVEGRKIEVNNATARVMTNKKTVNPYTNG
# B1: AUCAAAA (DNA:RNA)
# RNA: GGGAGACCGGAAUUCAGAUUGUCCAUCAAAAUUAAAUCCCGUCGUAGCCACCA
# DNA 1: CAATCTGAATTCCGGTCTCCC
# DNA 2: TGGTGGCTACGACGGGATT
# B2: UUACCGA (DNA:RNA)
# RNA: B1 RNA with A25U, C27A, A28C, A29C, A30G
# DNA 1: CAATCTGAATTCCGGTCTCCC
# DNA 2: TGGTGGCTACGACGGGATT
# B3: AGACUAU (DNA:RNA)
# RNA: B1 RNA with U26G, C27A, A28C, A29U, A31U
# DNA 1: CAATCTGAATTCCGGTCTCCC
# DNA 2: TGGTGGCTACGACGGGATT
# B4: AUAGUCA (DNA:RNA)
# RNA: B1 RNA with C27A, A28G, A29U, A30C
# DNA 1: CAATCTGAATTCCGGTCTCCC
# DNA 2: TGGTGGCTACGACGGGATT
# B5: CAAAAAC (DNA:RNA)
# RNA: B1 RNA with A25C, U26A, C27A, A31C
# DNA 1: CAATCTGAATTCCGGTCTCCC
# DNA 2: TGGTGGCTACGACGGGATT
# B6: CAGACGC (DNA:RNA)
# RNA: B1 RNA with A25C, U26A, C27G, A29C, A30G, A31C
# DNA 1: CAATCTGAATTCCGGTCTCCC
# DNA 2: TGGTGGCTACGACGGGATT
# B7: GUUACGU (DNA:RNA)
# RNA: B1 RNA with A25G, C27U, A29C, A30G, A31U
# DNA 1: CAATCTGAATTCCGGTCTCCC
# DNA 2: TGGTGGCTACGACGGGATT
# B8: GCCUACU (DNA:RNA)
# RNA: B1 RNA with A25G, U26C, A28U, A30C, A31U
# DNA 1: CAATCTGAATTCCGGTCTCCC
# DNA 2: TGGTGGCTACGACGGGATT
# B9: UCGGUUG (DNA:RNA)
# RNA: GGGAGACCGGAAUUCAGAUUGUCCUCGGUUGUUAAAUCCCGUCGUAGCCACCA
# DNA 1: CAATCTGAATTCCGGTCTCCC
# DNA 2: TGGTGGCTACGACGGGATT
# B10: GGGUCAC (DNA:RNA)
# RNA: B1 RNA with A25G, U26G, C27G, A28U, A29C, A31C
# DNA 1: CAATCTGAATTCCGGTCTCCC
# DNA 2: TGGTGGCTACGACGGGATT
# B11: GAACCCU (DNA:RNA)
# RNA: GGGAGACCGGAAUUCAGAUUGUCCGAACCCUUUAAAUCCCGUCGUAGCCACCA
# DNA 1: CAATCTGAATTCCGGTCTCCC
# DNA 2: TGGTGGCTACGACGGGATT
# B12: GUGUUCG (DNA:RNA)
# RNA: B9 RNA with U25G, C26U, G28U, U30C
# DNA 1: CAATCTGAATTCCGGTCTCCC
# DNA 2: TGGTGGCTACGACGGGATT
# B13: ACUUACC (DNA:RNA)
# RNA: B1 RNA with U26C, C27U, A28U, A30C, A31C
# DNA 1: CAATCTGAATTCCGGTCTCCC
# DNA 2: TGGTGGCTACGACGGGATT
# B14: UUAUCAU (DNA:RNA)
# RNA: B11 RNA with G25U, A26U, C28U, C30A
# DNA 1: CAATCTGAATTCCGGTCTCCC
# DNA 2: TGGTGGCTACGACGGGATT
# B15: UGUCGUG (DNA:RNA)
# RNA: B9 RNA with C26G, G27U, G28C, U29G
# DNA 1: CAATCTGAATTCCGGTCTCCC
# DNA 2: TGGTGGCTACGACGGGATT
# B16: ACAUGCU (DNA:RNA)
# RNA: B11 RNA with G25A, A26C, C28U, C29G
# DNA 1: CAATCTGAATTCCGGTCTCCC
# DNA 2: TGGTGGCTACGACGGGATT
# B17: GAUGCAU (DNA:RNA)
# RNA: B11 RNA with A27U, C28G, C30A
# DNA 1: CAATCTGAATTCCGGTCTCCC
# DNA 2: TGGTGGCTACGACGGGATT
# B18: UCUGGCA (DNA:RNA)
# RNA: B9 RNA with G27U, U29G, U30C, G31A
# DNA 1: CAATCTGAATTCCGGTCTCCC
# DNA 2: TGGTGGCTACGACGGGATT
# B19: GCAGCUA (DNA:RNA)
# RNA: B11 RNA with A26C, C28G, C30U, U31A
# DNA 1: CAATCTGAATTCCGGTCTCCC
# DNA 2: TGGTGGCTACGACGGGATT
# B20: UGUCUUU (DNA:RNA)
# RNA: B9 RNA with C26G, G27U, G28C, G31U
# DNA 1: CAATCTGAATTCCGGTCTCCC
# DNA 2: TGGTGGCTACGACGGGATT
# B21: GGAUACC (DNA:RNA)
# RNA: B11 RNA with A26G, C28U, C29A, U31C
# DNA 1: CAATCTGAATTCCGGTCTCCC
# DNA 2: TGGTGGCTACGACGGGATT
# B22: CAACCAA (DNA:RNA)
# RNA: B11 RNA with G25C, C30A, U31A
# DNA 1: CAATCTGAATTCCGGTCTCCC
# DNA 2: TGGTGGCTACGACGGGATT
# B23: AUGUGUA (DNA:RNA)
# RNA: B1 RNA with C27G, A28U, A29G, A30U
# DNA 1: CAATCTGAATTCCGGTCTCCC
# DNA 2: TGGTGGCTACGACGGGATT
# B24: GUUCUGG (DNA:RNA)
# RNA: B11 RNA with A26U, A27U, C29U, C30G, U31G
# DNA 1: CAATCTGAATTCCGGTCTCCC
# DNA 2: TGGTGGCTACGACGGGATT
# B25: CCGGUAA (DNA:RNA)
# RNA: B9 RNA with U25C, U30A, G31A
# DNA 1: CAATCTGAATTCCGGTCTCCC
# DNA 2: TGGTGGCTACGACGGGATT
# B26: GGACUGC (DNA:RNA)
# RNA: B11 RNA with A26G, C29U, C30G, U31C
# DNA 1: CAATCTGAATTCCGGTCTCCC
# DNA 2: TGGTGGCTACGACGGGATT
# B27: GAUGACG (DNA:RNA)
# RNA: B11 RNA with A27U, C28G, C29A, U31G
# DNA 1: CAATCTGAATTCCGGTCTCCC
# DNA 2: TGGTGGCTACGACGGGATT
# B28: UCCUCGC (DNA:RNA)
# RNA: B9 RNA with G27C, G28U, U29C, U30G, G31C
# DNA 1: CAATCTGAATTCCGGTCTCCC
# DNA 2: TGGTGGCTACGACGGGATT
# B29: GGUAAUU (DNA:RNA)
# RNA: B1 RNA with A25G, U26G, C27U, A30U, A31U
# DNA 1: CAATCTGAATTCCGGTCTCCC
# DNA 2: TGGTGGCTACGACGGGATT
# B30: GGGGUUA (DNA:RNA)
# RNA: B9 RNA with U25G, C26G, G31A
# DNA 1: CAATCTGAATTCCGGTCTCCC
# DNA 2: TGGTGGCTACGACGGGATT
# B31: AGUACGU (DNA:RNA)
# RNA: B1 RNA with U26G, C27U, A29C, A30G, A31U
# DNA 1: CAATCTGAATTCCGGTCTCCC
# DNA 2: TGGTGGCTACGACGGGATT
# Target: T1, RBFOX1 RRM RbFoxmut (Fox-RRM*)
# Experiment: EMSA; HiTS-Eq, 1 nM pool, 10 min; buffer printed only for the single-RNA assays: 10 mM Tris pH 7.5, 150 mM NaCl, 3.4 mM EDTA, 0.001% NP-40, 30 C
# Conditions: tags: His6 N-terminal (pET28a); label: 5' 32P
# Method in brief: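 Purified wild-type or mutant RbFox RRM at increasing concentrations was equilibrated with 1 nM of 5′-radiolabelled RNA carrying 7 randomized nucleotides for 10 min in 50 µL. Unbound RNA was separated by 8% native PAGE and sequenced. Relative association constants came from read-count changes of each RNA species compared with the control reaction, normalised to the cognate motif.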
row,Binder,binding signal
1,B1,0.114 KA relative to UGCAUGU
2,B2,0.0857 KA relative to UGCAUGU
3,B3,0.0902 KA relative to UGCAUGU
4,B4,0.109 KA relative to UGCAUGU
5,B5,0.0684 KA relative to UGCAUGU
6,B6,0.0515 KA relative to UGCAUGU
7,B7,0.132 KA relative to UGCAUGU
8,B8,0.0913 KA relative to UGCAUGU
9,B9,0.231 KA relative to UGCAUGU
10,B10,0.0601 KA relative to UGCAUGU
11,B11,0.0592 KA relative to UGCAUGU
12,B12,0.324 KA relative to UGCAUGU
13,B13,0.0997 KA relative to UGCAUGU
14,B14,0.126 KA relative to UGCAUGU
15,B15,0.193 KA relative to UGCAUGU
16,B16,0.102 KA relative to UGCAUGU

row,Binder,binding signal
1,B17,0.0985 KA relative to UGCAUGU
2,B18,0.139 KA relative to UGCAUGU
3,B19,0.0971 KA relative to UGCAUGU
4,B20,0.0735 KA relative to UGCAUGU
5,B21,0.0829 KA relative to UGCAUGU
6,B22,0.103 KA relative to UGCAUGU
7,B23,0.364 KA relative to UGCAUGU
8,B24,0.0857 KA relative to UGCAUGU
9,B25,0.0836 KA relative to UGCAUGU
10,B26,0.139 KA relative to UGCAUGU
11,B27,0.0905 KA relative to UGCAUGU
12,B28,0.0768 KA relative to UGCAUGU
13,B29,0.0732 KA relative to UGCAUGU
14,B30,0.138 KA relative to UGCAUGU
15,B31,0.0867 KA relative to UGCAUGU

# From article PMC9911399, “Two distinct binding modes provide the RNA-binding protein RbFox with extraordinary sequence specificity”
